Data as given in patent publication US10604555B2, “GIP derivatives and uses thereof” (priority 2018, dated 2020).
Part of at least one peptide drawing is inferred or uncertain, most often the ends. For at least one compound, name, drawing or mass did not settle the structure. *1 amine or outer side, *2 acyl side, *3 side chain or, on linkers, in order; H or OH if unused. Where a SMILES comes first, the peptide text is derived from it. Side-chain parts run from the residue outwards. [ ]: non-standard residue; d: D form. The star is where a group is joined. X1 = O=C(O)CCCCCCCCCCCCCCCCCCC(=O)NCC1CCC(C(=O)*)CC1; γGlu = O=C(O)[C@H](CCC(=O)[*:2])N[*:1]; Nle = CCCC[C@H](N)C(=O)O; Aib = CC(C)(N)C(=O)O

Tests used:
Assay type in all cases: physicochemical
[1] = ThT fibrillation assay (physical stability); conditions: 250 μM, pH 7.4, 37° C., 45 hours of incubation
Protocol: The Thioflavin T assay was performed as outlined in Schlein (2017), AAPS J, 19(2), 397-408.
This has traditionally been measured by visual inspection of the sample. However, that kind of measurement is very cumbersome and depending on the observer. Therefore, the application of a small molecule indicator probe is much more advantageous. Thioflavin T (ThT) is such a probe and has a distinct fluorescence signature when binding to fibrils [Naiki et al. (1989) Anal. Biochem. 177, 244-249; LeVine (1999) Methods. Enzymol. 309, 274-284].
The time course for fibril formation can be described by a sigmoidal curve with the following expression [Nielsen et al. (2001) Biochemistry 40, 6036-6046]:
Here, F is the ThT fluorescence at the time t. The constant t0 is the time needed to reach 50% of maximum fluorescence. The two important parameters describing fibril formation are the lag-time calculated by t0−2τ and the apparent rate constant kapp 1/τ.
Few of those intermediates nucleate to form a template onto which further intermediates may assembly and the fibrillation proceeds. The lag-time corresponds to the interval in which the critical mass of nucleus is built up and the apparent rate constant is the rate with which the fibril itself is formed.
Samples are prepared freshly before each assay. The drug substance was solved with 250 μM of the GIP derivative in 8 mM phosphate, 14 mg/mL propylene glycol, 58 mM phenol, pH 7.4. The pH of the sample was adjusted to the desired value using appropriate amounts of concentrated NaOH and HCl. Thioflavin T was added to the samples from a stock solution in H2O to a final concentration of 1 μM.
Sample aliquots of 200 μl were placed in each well of a 96 well microtiter plate (Packard OptiPlate™-96, white polystyrene). Four replica of each sample (corresponding to one test condition) was placed in one column of wells. The plate was sealed with Scotch Pad (Qiagen).
Incubation, shaking and measurement of the ThT fluorescence emission were done in a Fluoroskan Ascent FL fluorescence platereader (Thermo Labsystems). […] Fluorescence measurement was done using excitation through a 444 nm filter and measurement of emission through a 485 nm filter.
Each run was initiated by incubating the plate at the assay temperature for 10 min. The plate was measured every 20 minutes for a desired period of time. Between each measurement, the plate was shaken and heated as described.
After completion of the ThT assay the replica of each sample was pooled and centrifuged at 20000 rpm for 30 minutes at 18° C. The supernatant was filtered through a 0.22 μm filter and an aliquot was transferred to a HPLC vial. The concentration of the filtered sample relative to the initial sample (in percentage) was reported as the recovery.
The measurement points were saved in Microsoft Excel format for further processing and curve drawing and fitting was performed using GraphPad Prism. […] The data points were a mean of the four replica and shown with standard deviation error bars. Only data obtained in the same experiment (i.e. samples on the same plate) were presented in the same graph ensuring a relative measure of fibrillation between experiments.
The data set may be fitted to Eq. (1).

[2] = Dynamic Light Scattering Stability Index (DLS-SI); conditions: 250 μM, pH 7.4, 4 weeks at 25° C.
[3] = Chemical stability: HMWP formation by SEC-MS; conditions: 37° C., 4 weeks, 250 μM, pH 7.4
Protocol: The aim of this study is to determine the chemical stability of GIP derivative compositions. As a measure of stability of the GIP derivative composition, the formation of high molecular weight peptide formation (% HMWP) as a function of time was analysed by size-exclusion chromatography (SEC-MS). Further, the purity loss of the GIP derivative compositions was measured by LCMS. Samples for chemical stability assays were freshly prepared before each assay. […] The pH of the sample was adjusted to the desired value using appropriate amounts of concentrated NaOH and HCl. […] Formation of covalent oligomers (HMWPs) was analysed and identified by a SEC-MS method. […] The LC system was coupled to both a TUV detector operated at 215 nm, 10 Hz and a high resolution QToF mass spectrometer from Waters (Synapt G2S) operated in positive ion mode and m/z range of 100 to 4000 with normal resolution setting. Lock mass correction against Leu-Enkephalin was done every 31 sec. Spectra were processed in MassLynx version 4.1 and MaxEnt deconvoluted.

[4] = Chemical stability: purity loss by LCMS; conditions: 37° C., 4 weeks, 250 μM, pH 7.4
Protocol: The aim of this study is to determine the chemical stability of GIP derivative compositions. As a measure of stability of the GIP derivative composition, the formation of high molecular weight peptide formation (% HMWP) as a function of time was analysed by size-exclusion chromatography (SEC-MS). Further, the purity loss of the GIP derivative compositions was measured by LCMS. Samples for chemical stability assays were freshly prepared before each assay. […] The pH of the sample was adjusted to the desired value using appropriate amounts of concentrated NaOH and HCl. […] The column oven was kept at 55° C. […] The solvents were pumped from a binary solvent manager system and mixed on the high pressure side in a mixer with a volume of 50 μl. The gradient and flow can be seen in table 4: [table] A Flow-through-needle auto sampler at 8° C. was used to inject 1 μl of each sample. The effluent passed through a tunable UV detector (TUV) tuned to 215 nm. The outlet from the UV detector passed to the electrospray source of the mass spectrometer. The capillary was held at 3 kV and dry nitrogen gas was purged at a flow of 750 I/h and a temperature of 250° C. The source block was kept at 120° C. and the large bore cone was flushed with nitrogen at 50 I/h with standard electrode potentials on the rest of the instrument. The MS was operated in high resolution mode with a nominal resolution of 35000. The ToF analyser was operated in ADC mode with an m/z window from 100-2000.

Row | Structure (SMILES) | ThT Assay Lag time [1] | DLS-SI Dimensionless [2] | DLS-SI precipitates [2] | HMWP formation (%/month) [3] | Purity loss (%/month) [4]
1 | CCCC[C@H](NC(=O)[C@H](C)NC(=O)[C@@H](NC(=O)[C@H](CO)NC(=O)[C@H](Cc1ccc(O)cc1)NC(=O)[C@H](CC(=O)O)NC(=O)[C@H](CO)NC(=O)[C@@H](NC(=O)[C@H](Cc1ccccc1)NC(=O)[C@@H](NC(=O)CNC(=O)[C@H](CCC(=O)O)NC(=O)C(C)(C)NC(=O)[C@@H](N)Cc1ccc(O)cc1)[C@@H](C)O)[C@@H](C)CC)[C@@H](C)CC)C(=O)N[C@@H](CC(=O)O)C(=O)N[C@@H](CCCCN)C(=O)N[C@H](C(=O)N[C@@H](Cc1c[nH]cn1)C(=O)N[C@@H](CCC(N)=O)C(=O)N[C@@H](CCC(N)=O)C(=O)N[C@@H](CC(=O)O)C(=O)N[C@@H](Cc1ccccc1)C(=O)N[C@H](C(=O)N[C@@H](CCCCNC(=O)CC[C@H](NC(=O)CC[C@H](NC(=O)CC[C@H](NC(=O)C1CCC(CNC(=O)CCCCCCCCCCCCCCCCCCC(=O)O)CC1)C(=O)O)C(=O)O)C(=O)O)C(=O)N[C@@H](Cc1c[nH]c2ccccc12)C(=O)N[C@@H](CC(C)C)C(=O)N[C@@H](CC(C)C)C(=O)N[C@@H](C)C(=O)N[C@@H](CCC(N)=O)C(=O)N[C@@H](CCCCN)C(=O)N1CCC[C@H]1C(N)=O)C(C)C)[C@@H](C)CC (stereo partly drawn) [Compound 27, N{Epsilon-24}-[(4S)-4-carboxy-4-[[(4S)-4-carboxy-4-[[(4S)-4-carboxy-4-[[4-[(19-carboxynonadecanoylamino)methyl]cyclohexanecarbonyl]amino]butanoyl]amino]-butanoyl]amino]butanoyl]-[Aib2,Nle14,Lys24,Pro31]-hGIP(1-31) amide] (H-Y[Aib]EGTFISDYSIA[Nle]DKIHQQDFVK([γGlu-γGlu-γGlu-X1])WLLAQKP-NH2; N-terminus assumed) | >45 h | 1.7 | No | 0.85 %/month | 1.09 %/month
2 | CCCC[C@H](NC(=O)[C@H](C)NC(=O)[C@@H](NC(=O)[C@H](CO)NC(=O)[C@H](Cc1ccc(O)cc1)NC(=O)[C@H](CC(=O)O)NC(=O)[C@H](CO)NC(=O)[C@@H](NC(=O)[C@H](Cc1ccccc1)NC(=O)[C@@H](NC(=O)CNC(=O)[C@H](CCC(=O)O)NC(=O)[C@H](C)NC(=O)[C@@H](Cc1ccc(O)cc1)NC(C)=O)[C@@H](C)O)[C@@H](C)CC)[C@@H](C)CC)C(=O)N[C@@H](CC(=O)O)C(=O)N[C@@H](CCCCN)C(=O)N[C@H](C(=O)N[C@@H](CCCNC(=N)N)C(=O)N[C@@H](CCC(N)=O)C(=O)N[C@@H](CCC(N)=O)C(=O)N[C@@H](CC(=O)O)C(=O)N[C@@H](Cc1ccccc1)C(=O)N[C@H](C(=O)N[C@@H](CCCCNC(=O)CC[C@H](NC(=O)CC[C@H](NC(=O)CC[C@H](NC(=O)C1CCC(CNC(=O)CCCCCCCCCCCCCCCCCCC(=O)O)CC1)C(=O)O)C(=O)O)C(=O)O)C(=O)N[C@@H](Cc1c[nH]c2ccccc12)C(=O)N[C@@H](CC(C)C)C(=O)N[C@@H](CC(C)C)C(=O)N[C@@H](C)C(=O)N[C@@H](CCC(N)=O)C(=O)N[C@@H](CCCCN)C(=O)N1CCC[C@H]1C(N)=O)C(C)C)[C@@H](C)CC (stereo partly drawn) [Compound 28, N{1}-acetyl,N{Epsilon-24}-[(4S)-4-carboxy-4-[[(4S)-4-carboxy-4-[[(4S)-4-carboxy-4-[[4-[(19-carboxynonadecanoylamino)methyl]cyclohexanecarbonyl]amino]butanoyl]-amino]butanoyl]amino]butanoyl]-[D-Tyr1,Nle14,Arg18,Lys24,Pro31]-hGIP(1-31) amide] (Ac-[dY]AEGTFISDYSIA[Nle]DKIRQQDFVK([γGlu-γGlu-γGlu-X1])WLLAQKP-NH2) | >45 h | 0 | No | 0.08 %/month | 1.49 %/month
